IC50 is the fitted dose that halves viability relative to control wells, and lower means more sensitive; fits outside the tested doses are given as limits. AUC sums up the same curve from the lowest dose to the 256-fold higher top dose; values near 1 show little effect. For part of these data: Where the top dose is marked as inferred, it is not printed in the source and was worked back from the curve model. For part of these data: Drugs with an entry number were screened twice under separate entries, and the two screens often disagree.
Assays:
Assay in all cases: Viability of human cancer cell lines after 72 h of drug (GDSC screen)
[1] = compound: COc1nc(C)cnc1NS(=O)(=O)c1cccnc1-c1ccc(-c2nnco2)cc1 [Zibotentan]; details: top dose 20 µM; top dose inferred
Description: (§1)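 Human cancer cell lines in 384-well plates, medium with 10% serum, drug for 72 h over a 256-fold dose range (nine 2-fold or five 4-fold steps up to the top dose). Adherent lines were fixed and stained with the nucleic acid dye Syto60, suspension lines read with resazurin; signal relative to control wells, capped at 0 and 100%. One two-parameter sigmoid per drug and line, fitted in a mixed model over all curves with the slope shared within a line.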

[2] = compound: CCn1c(-c2nonc2N)nc2cnc(Oc3cccc(NC(=O)c4ccc(OCCN5CCOCC5)cc4)c3)cc21 [GSK269962A]; details: top dose inferred
Description: as §1

[3] = compound: Nc1ccn([C@@H]2O[C@H](CO)[C@@H](O)[C@@H]2O)c(=O)n1 [Cytarabine]; details: top dose 2 µM
Description: as §1

[4] = compound: Cc1cnc(-c2cnc(NCCNc3ccc(C#N)cn3)nc2-c2ccc(Cl)cc2Cl)[nH]1 [CHIR-99021]
Description: as §1

[5] = compound: Cc1ccc(F)c(NC(=O)Nc2ccc(-c3cccc4[nH]nc(N)c34)cc2)c1 [ABT-869]; details: top dose 1.024 µM; top dose inferred
Description: as §1

[6] = compound: Cc1ccc(-c2c(C(=O)CCl)n(CCCO)c3ncnc(N)c23)cc1 [CMK]; details: top dose 4 µM; top dose inferred
Description: as §1

[7] = compound: COc1cc(N2CCC(O)CC2)ccc1Nc1cc(Nc2ccccc2S(=O)(=O)C(C)C)c2cc[nH]c2n1 [MPS-1-IN-1]; details: top dose 20 µM; top dose inferred
Description: as §1

[8] = compound: COc1cc2ncnc(-n3nc(-c4ccccn4)nc3N)c2cc1OC [CP466722]; details: top dose 16 µM; top dose inferred
Description: as §1

[9] = compound: C=CC(=O)Nc1cc(-n2c(=O)ccc3cnc4ccc(-c5cn[nH]c5)cc4c32)ccc1C [QL-X-138]; details: top dose 10.24 µM; top dose inferred
Description: as §1

[10] = compound: C[C@]1(c2nc3c(C(N)=O)cccc3[nH]2)CCCN1 [ABT-888]; details: top dose 5 µM; top dose inferred
Description: as §1

[11] = compound: C/C=C(/C)C(=O)O[C@H]1C(C)=C2[C@H]([C@@H]1OC(=O)CCCCCCC)[C@@](C)(OC(C)=O)C[C@H](OC(=O)CCC)[C@@]1(O)[C@H]2OC(=O)[C@@]1(C)O [Thapsigargin]; details: top dose 0.512 µM; top dose inferred
Description: as §1

[12] = compound: COc1cc(O)c2c(c1)/C=C/C[C@H](O)[C@H](O)C(=O)/C=C\C[C@H](C)OC2=O [(5Z)-7-Oxozeaenol]; details: top dose 10 µM; top dose inferred
Description: as §1

[13] = compound: O=c1cc(-c2cccc3c2Sc2ccccc2S3)oc(N2CCOCC2)c1 [KU-55933]; details: top dose 10 µM
Description: as §1

[14] = top dose 2.5 µM, screen: GDSC drug entry 127
[15] = top dose 5 µM, screen: GDSC drug entry 1192
[16] = top dose 2.56 µM, screen: GDSC drug entry 154
[17] = top dose 10 µM, screen: GDSC drug entry 1241, top dose inferred

Cell Line | AUC [1] | IC50 [1] [µM] | AUC [2, 14] | IC50 [2, 14] [nM] | AUC [2, 15] | IC50 [2, 15] [nM] | AUC [3] | IC50 [3] [nM] | AUC [4, 16] | IC50 [4, 16] [µM] | AUC [4, 17] | IC50 [4, 17] [µM] | AUC [5] | IC50 [5] [nM] | AUC [6] | IC50 [6] [µM] | AUC [7] | IC50 [7] [µM] | AUC [8] | IC50 [8] [µM] | AUC [9] | IC50 [9] [nM] | AUC [10] | IC50 [10] [µM] | AUC [11] | IC50 [11] [nM] | AUC [12] | IC50 [12] [nM] | AUC [13] | IC50 [13] [µM]
NCI-H1581 (large cell lung carcinoma, semi-adherent) | 0.989 | > 20 | 0.94 | > 2500 | 0.906 | > 5000 | 0.803 | 900 | 0.99 | > 2.56 | 0.988 | > 10 | 0.989 | > 1020 | 0.905 | > 4 | 0.956 | > 20 | 0.804 | 7.27 | 0.627 | 1390 | 0.989 | > 5 | 0.403 | 17.7 | 0.613 | 1240 | – | –
NCI-H1666 (lung adenocarcinoma, semi-adherent) | 0.987 | > 20 | 0.979 | > 2500 | 0.985 | > 5000 | 0.911 | > 2000 | 0.986 | > 2.56 | 0.907 | > 10 | 0.983 | > 1020 | 0.963 | > 4 | 0.97 | > 20 | 0.921 | > 16 | 0.793 | 5180 | 0.986 | > 5 | 0.861 | 505 | 0.666 | 1890 | – | –
NTERA-2 cl.D1 (testis, adherent) | 0.985 | > 20 | 0.947 | > 2500 | 0.414 | 182 | 0.622 | 270 | 0.985 | > 2.56 | 0.958 | > 10 | 0.982 | > 1020 | 0.916 | > 4 | 0.852 | 15.2 | 0.823 | 9.32 | 0.776 | 4050 | 0.976 | > 5 | 0.057 | < 2 | 0.536 | 782 | – | –
OCI-AML5 (acute myeloid leukaemia, suspension) | 0.987 | > 20 | 0.632 | 349 | 0.918 | > 5000 | 0.346 | 48.6 | 0.989 | > 2.56 | 0.988 | > 10 | 0.738 | 284 | 0.948 | > 4 | 0.652 | 3.16 | 0.622 | 2.1 | 0.563 | 938 | 0.989 | > 5 | – | – | 0.531 | 753 | 0.989 | > 10
PL-21 (acute myeloid leukaemia, suspension) | 0.97 | > 20 | 0.763 | 1040 | 0.88 | > 5000 | 0.749 | 743 | 0.982 | > 2.56 | 0.98 | > 10 | 0.979 | > 1020 | 0.885 | > 4 | 0.743 | 7.07 | 0.629 | 2.41 | 0.486 | 584 | 0.983 | > 5 | 0.764 | 215 | 0.691 | 2360 | – | –
SK-N-DZ (neuroblastoma, adherent) | 0.987 | > 20 | 0.913 | > 2500 | 0.803 | 2440 | 0.754 | 666 | 0.904 | > 2.56 | 0.872 | 9.31 | 0.983 | > 1020 | 0.851 | 3 | 0.864 | 17.1 | 0.948 | > 16 | 0.96 | > 10200 | 0.987 | > 5 | 0.584 | 54.2 | 0.409 | 352 | – | –
SUP-HD1 (Hodgkin lymphoma, suspension) | 0.988 | > 20 | 0.945 | > 2500 | 0.98 | > 5000 | 0.976 | > 2000 | 0.984 | > 2.56 | 0.987 | > 10 | 0.988 | > 1020 | 0.82 | 2.16 | 0.857 | 15 | 0.715 | 3.93 | 0.587 | 1100 | 0.974 | > 5 | – | – | 0.688 | 2050 | 0.921 | > 10
U-698-M (B-cell leukaemia, suspension) | 0.984 | > 20 | 0.976 | > 2500 | 0.885 | > 5000 | 0.807 | 1030 | 0.978 | > 2.56 | 0.986 | > 10 | 0.987 | > 1020 | 0.934 | > 4 | 0.821 | 11.6 | 0.807 | 8.23 | 0.784 | 4350 | 0.987 | > 5 | – | – | 0.807 | 5140 | 0.925 | > 10
no-10 (glioma, adherent) | 0.98 | > 20 | 0.637 | 410 | 0.794 | 2920 | 0.961 | > 2000 | 0.95 | > 2.56 | 0.963 | > 10 | 0.975 | > 1020 | 0.792 | 2.29 | 0.964 | > 20 | 0.894 | > 16 | 0.557 | 950 | 0.98 | > 5 | 0.805 | 330 | 0.71 | 2830 | – | –
